# Measured values taken from paper PMC12820563, “FoxP3 forms a head-to-head dimer in vivo and stabilizes its multimerization on adjacent microsatellites”.
# This is one part of the list.
# Molecular target: T1, MBP-FoxP1dN (Mus musculus, UniProt P58462 326-579)
# T1 sequence: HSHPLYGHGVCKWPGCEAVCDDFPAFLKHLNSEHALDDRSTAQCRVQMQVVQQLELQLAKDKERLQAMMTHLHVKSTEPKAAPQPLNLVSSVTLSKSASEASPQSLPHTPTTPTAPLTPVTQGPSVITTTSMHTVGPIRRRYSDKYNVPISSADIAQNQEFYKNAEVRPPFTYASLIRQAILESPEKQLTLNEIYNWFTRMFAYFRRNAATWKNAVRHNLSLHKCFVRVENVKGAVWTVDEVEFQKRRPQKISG
# Test: PD-seq (MBP pull-down with sequencing); 20 mM Tris-HCl pH 7.5, 100 mM NaCl, 1.5 mM MgCl2, 0.4 uM protein, 0.1 uM dsDNA library, 30 min, room temperature, amylose pull-down; high values mean tight binding
# Settings: protein: recombinant; tags: His6-MBP; chain copies: 2; dsDNA, one strand shown
# Procedure, shortened: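 Amylose resin was used to capture complexes formed during 30 min at room temperature in Tris pH 7.5 buffer with NaCl and MgCl2 between 0.4 µM His6-MBP-tagged mouse FoxP3 or FoxP1 fragment lacking the N-terminus, expressed in E. coli, and 0.1 µM Klenow-filled double-stranded degenerate DNA library. After three washes, the DNA was released with proteinase K, barcoded by PCR and sequenced on Illumina. Binding is pooled-replicate reads-per-million enrichment, pull-down over input.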
row,Sequence,binding signal
1,GATGATTGTTCTCCCAGCTGATGAATTGCTCATATCGAGTAAACAAATTTTCCTAATCTTTCTGTTCAAGCGCCATCTAC,1.06 RPM ratio (pull-down/input)
2,GATGATTGTTCTCCCAGCTGATGAATTCCACAGCTCGAGTAAACAAATTTTCCTAATCTTTCTGTTCAAGCGCCATCTAC,0.752 RPM ratio (pull-down/input)
3,GATGATTGTTCTCCCAGCTGATGAATTGTGCTCTTCGAGTAAACAAATTTTCCTAATCTTTCTGTTCAAGCGCCATCTAC,1.12 RPM ratio (pull-down/input)
4,GATGATTGTTCTCCCAGCTGATGAATTATCGAAATCGAGTAAACAAATTTTCCTAATCTTTCTGTTCAAGCGCCATCTAC,1.06 RPM ratio (pull-down/input)
5,GATGATTGTTCTCCCAGCTGATGAATTGTCAAGCTCGAGTAAACAAATTTTCCTAATCTTTCTGTTCAAGCGCCATCTAC,1.01 RPM ratio (pull-down/input)
6,GATGATTGTTCTCCCAGCTGATGAATTTTCAAATTCGAGTAAACAAATTTTCCTAATCTTTCTGTTCAAGCGCCATCTAC,0.956 RPM ratio (pull-down/input)
7,GATGATTGTTCTCCCAGCTGATGAATTCCATAGCTCGAGTAAACAAATTTTCCTAATCTTTCTGTTCAAGCGCCATCTAC,0.79 RPM ratio (pull-down/input)
8,GATGATTGTTCTCCCAGCTGATGAATTTCCATGTTCGAGTAAACAAATTTTCCTAATCTTTCTGTTCAAGCGCCATCTAC,0.909 RPM ratio (pull-down/input)
9,GATGATTGTTCTCCCAGCTGATGAATTAGGCACCTCGAGTAAACAAATTTTCCTAATCTTTCTGTTCAAGCGCCATCTAC,0.847 RPM ratio (pull-down/input)
10,GATGATTGTTCTCCCAGCTGATGAATTGGCTCATTCGAGTAAACAAATTTTCCTAATCTTTCTGTTCAAGCGCCATCTAC,0.903 RPM ratio (pull-down/input)
11,GATGATTGTTCTCCCAGCTGATGAATTCAATCTTTCGAGTAAACAAATTTTCCTAATCTTTCTGTTCAAGCGCCATCTAC,0.863 RPM ratio (pull-down/input)
12,GATGATTGTTCTCCCAGCTGATGAATTGGAGCAATCGAGTAAACAAATTTTCCTAATCTTTCTGTTCAAGCGCCATCTAC,1.05 RPM ratio (pull-down/input)
13,GATGATTGTTCTCCCAGCTGATGAATTCTTGTTTTCGAGTAAACAAATTTTCCTAATCTTTCTGTTCAAGCGCCATCTAC,2.77 RPM ratio (pull-down/input)
14,GATGATTGTTCTCCCAGCTGATGAATTTTATCGCTCGAGTAAACAAATTTTCCTAATCTTTCTGTTCAAGCGCCATCTAC,0.912 RPM ratio (pull-down/input)
15,GATGATTGTTCTCCCAGCTGATGAATTGGCGCTTTCGAGTAAACAAATTTTCCTAATCTTTCTGTTCAAGCGCCATCTAC,0.936 RPM ratio (pull-down/input)
16,GATGATTGTTCTCCCAGCTGATGAATTCCCATCGTCGAGTAAACAAATTTTCCTAATCTTTCTGTTCAAGCGCCATCTAC,0.811 RPM ratio (pull-down/input)
17,GATGATTGTTCTCCCAGCTGATGAATTTTCGAAGTCGAGTAAACAAATTTTCCTAATCTTTCTGTTCAAGCGCCATCTAC,0.853 RPM ratio (pull-down/input)
18,GATGATTGTTCTCCCAGCTGATGAATTTGACGATTCGAGTAAACAAATTTTCCTAATCTTTCTGTTCAAGCGCCATCTAC,0.901 RPM ratio (pull-down/input)
19,GATGATTGTTCTCCCAGCTGATGAATTACAAATGTCGAGTAAACAAATTTTCCTAATCTTTCTGTTCAAGCGCCATCTAC,1.44 RPM ratio (pull-down/input)
20,GATGATTGTTCTCCCAGCTGATGAATTGTCAGCTTCGAGTAAACAAATTTTCCTAATCTTTCTGTTCAAGCGCCATCTAC,0.971 RPM ratio (pull-down/input)
21,GATGATTGTTCTCCCAGCTGATGAATTTGGGTCATCGAGTAAACAAATTTTCCTAATCTTTCTGTTCAAGCGCCATCTAC,0.874 RPM ratio (pull-down/input)

row,Sequence,binding signal
1,GATGATTGTTCTCCCAGCTGATGAATTTGCCTGATCGAGTAAACAAATTTTCCTAATCTTTCTGTTCAAGCGCCATCTAC,0.906 RPM ratio (pull-down/input)
2,GATGATTGTTCTCCCAGCTGATGAATTAACGGGATCGAGTAAACAAATTTTCCTAATCTTTCTGTTCAAGCGCCATCTAC,0.847 RPM ratio (pull-down/input)
3,GATGATTGTTCTCCCAGCTGATGAATTGCCGTATTCGAGTAAACAAATTTTCCTAATCTTTCTGTTCAAGCGCCATCTAC,1.03 RPM ratio (pull-down/input)
4,GATGATTGTTCTCCCAGCTGATGAATTGTAACTGTCGAGTAAACAAATTTTCCTAATCTTTCTGTTCAAGCGCCATCTAC,0.997 RPM ratio (pull-down/input)
5,GATGATTGTTCTCCCAGCTGATGAATTATCGTCATCGAGTAAACAAATTTTCCTAATCTTTCTGTTCAAGCGCCATCTAC,1.1 RPM ratio (pull-down/input)
6,GATGATTGTTCTCCCAGCTGATGAATTAGCGACGTCGAGTAAACAAATTTTCCTAATCTTTCTGTTCAAGCGCCATCTAC,0.911 RPM ratio (pull-down/input)
7,GATGATTGTTCTCCCAGCTGATGAATTTGATTGCTCGAGTAAACAAATTTTCCTAATCTTTCTGTTCAAGCGCCATCTAC,1.16 RPM ratio (pull-down/input)
8,GATGATTGTTCTCCCAGCTGATGAATTATGAGCCTCGAGTAAACAAATTTTCCTAATCTTTCTGTTCAAGCGCCATCTAC,0.948 RPM ratio (pull-down/input)
9,GATGATTGTTCTCCCAGCTGATGAATTATTGCTCTCGAGTAAACAAATTTTCCTAATCTTTCTGTTCAAGCGCCATCTAC,1.01 RPM ratio (pull-down/input)
10,GATGATTGTTCTCCCAGCTGATGAATTGAATCCATCGAGTAAACAAATTTTCCTAATCTTTCTGTTCAAGCGCCATCTAC,0.86 RPM ratio (pull-down/input)
11,GATGATTGTTCTCCCAGCTGATGAATTGACAGAATCGAGTAAACAAATTTTCCTAATCTTTCTGTTCAAGCGCCATCTAC,1.35 RPM ratio (pull-down/input)
12,GATGATTGTTCTCCCAGCTGATGAATTGGGTCACTCGAGTAAACAAATTTTCCTAATCTTTCTGTTCAAGCGCCATCTAC,0.888 RPM ratio (pull-down/input)
13,GATGATTGTTCTCCCAGCTGATGAATTTGTGCTTTCGAGTAAACAAATTTTCCTAATCTTTCTGTTCAAGCGCCATCTAC,1.42 RPM ratio (pull-down/input)
14,GATGATTGTTCTCCCAGCTGATGAATTTATCCAATCGAGTAAACAAATTTTCCTAATCTTTCTGTTCAAGCGCCATCTAC,1.2 RPM ratio (pull-down/input)
15,GATGATTGTTCTCCCAGCTGATGAATTCCCCCCATCGAGTAAACAAATTTTCCTAATCTTTCTGTTCAAGCGCCATCTAC,0.861 RPM ratio (pull-down/input)
16,GATGATTGTTCTCCCAGCTGATGAATTGACTGTGTCGAGTAAACAAATTTTCCTAATCTTTCTGTTCAAGCGCCATCTAC,1.01 RPM ratio (pull-down/input)
17,GATGATTGTTCTCCCAGCTGATGAATTTGAATCATCGAGTAAACAAATTTTCCTAATCTTTCTGTTCAAGCGCCATCTAC,0.913 RPM ratio (pull-down/input)
18,GATGATTGTTCTCCCAGCTGATGAATTTCCTCAGTCGAGTAAACAAATTTTCCTAATCTTTCTGTTCAAGCGCCATCTAC,0.873 RPM ratio (pull-down/input)
19,GATGATTGTTCTCCCAGCTGATGAATTAAGCCACTCGAGTAAACAAATTTTCCTAATCTTTCTGTTCAAGCGCCATCTAC,0.893 RPM ratio (pull-down/input)
20,GATGATTGTTCTCCCAGCTGATGAATTTTAGTATTCGAGTAAACAAATTTTCCTAATCTTTCTGTTCAAGCGCCATCTAC,1.12 RPM ratio (pull-down/input)
21,GATGATTGTTCTCCCAGCTGATGAATTTATCCCGTCGAGTAAACAAATTTTCCTAATCTTTCTGTTCAAGCGCCATCTAC,1.01 RPM ratio (pull-down/input)

row,Sequence,binding signal
1,GATGATTGTTCTCCCAGCTGATGAATTTGGGGTATCGAGTAAACAAATTTTCCTAATCTTTCTGTTCAAGCGCCATCTAC,0.925 RPM ratio (pull-down/input)
2,GATGATTGTTCTCCCAGCTGATGAATTGGTCCAATCGAGTAAACAAATTTTCCTAATCTTTCTGTTCAAGCGCCATCTAC,0.951 RPM ratio (pull-down/input)
3,GATGATTGTTCTCCCAGCTGATGAATTTACATAATCGAGTAAACAAATTTTCCTAATCTTTCTGTTCAAGCGCCATCTAC,1.76 RPM ratio (pull-down/input)
4,GATGATTGTTCTCCCAGCTGATGAATTGACCTGCTCGAGTAAACAAATTTTCCTAATCTTTCTGTTCAAGCGCCATCTAC,0.911 RPM ratio (pull-down/input)
5,GATGATTGTTCTCCCAGCTGATGAATTGAGGTGATCGAGTAAACAAATTTTCCTAATCTTTCTGTTCAAGCGCCATCTAC,0.915 RPM ratio (pull-down/input)
6,GATGATTGTTCTCCCAGCTGATGAATTGATAGACTCGAGTAAACAAATTTTCCTAATCTTTCTGTTCAAGCGCCATCTAC,0.964 RPM ratio (pull-down/input)
7,GATGATTGTTCTCCCAGCTGATGAATTAGATGGGTCGAGTAAACAAATTTTCCTAATCTTTCTGTTCAAGCGCCATCTAC,0.878 RPM ratio (pull-down/input)
8,GATGATTGTTCTCCCAGCTGATGAATTAGGCCTCTCGAGTAAACAAATTTTCCTAATCTTTCTGTTCAAGCGCCATCTAC,0.903 RPM ratio (pull-down/input)
9,GATGATTGTTCTCCCAGCTGATGAATTTTGGCACTCGAGTAAACAAATTTTCCTAATCTTTCTGTTCAAGCGCCATCTAC,0.912 RPM ratio (pull-down/input)
10,GATGATTGTTCTCCCAGCTGATGAATTATCTCGGTCGAGTAAACAAATTTTCCTAATCTTTCTGTTCAAGCGCCATCTAC,0.855 RPM ratio (pull-down/input)
11,GATGATTGTTCTCCCAGCTGATGAATTAAGTCGCTCGAGTAAACAAATTTTCCTAATCTTTCTGTTCAAGCGCCATCTAC,0.951 RPM ratio (pull-down/input)
12,GATGATTGTTCTCCCAGCTGATGAATTACAACTCTCGAGTAAACAAATTTTCCTAATCTTTCTGTTCAAGCGCCATCTAC,1.27 RPM ratio (pull-down/input)
13,GATGATTGTTCTCCCAGCTGATGAATTGCTTAGATCGAGTAAACAAATTTTCCTAATCTTTCTGTTCAAGCGCCATCTAC,1.11 RPM ratio (pull-down/input)
14,GATGATTGTTCTCCCAGCTGATGAATTGGTCGTATCGAGTAAACAAATTTTCCTAATCTTTCTGTTCAAGCGCCATCTAC,0.934 RPM ratio (pull-down/input)
15,GATGATTGTTCTCCCAGCTGATGAATTTGAGGCTTCGAGTAAACAAATTTTCCTAATCTTTCTGTTCAAGCGCCATCTAC,0.876 RPM ratio (pull-down/input)
16,GATGATTGTTCTCCCAGCTGATGAATTGGACAATTCGAGTAAACAAATTTTCCTAATCTTTCTGTTCAAGCGCCATCTAC,0.972 RPM ratio (pull-down/input)
17,GATGATTGTTCTCCCAGCTGATGAATTAATGAATTCGAGTAAACAAATTTTCCTAATCTTTCTGTTCAAGCGCCATCTAC,1.01 RPM ratio (pull-down/input)
18,GATGATTGTTCTCCCAGCTGATGAATTTTAACGGTCGAGTAAACAAATTTTCCTAATCTTTCTGTTCAAGCGCCATCTAC,0.842 RPM ratio (pull-down/input)
19,GATGATTGTTCTCCCAGCTGATGAATTACTGAGCTCGAGTAAACAAATTTTCCTAATCTTTCTGTTCAAGCGCCATCTAC,0.926 RPM ratio (pull-down/input)
20,GATGATTGTTCTCCCAGCTGATGAATTTTTGACATCGAGTAAACAAATTTTCCTAATCTTTCTGTTCAAGCGCCATCTAC,1.09 RPM ratio (pull-down/input)
21,GATGATTGTTCTCCCAGCTGATGAATTTTGTTGTTCGAGTAAACAAATTTTCCTAATCTTTCTGTTCAAGCGCCATCTAC,2.84 RPM ratio (pull-down/input)
